Laboratory results reported in the supplement of paper PMC11417369.
± gives the standard deviation of the averaged measurements. This is one part of the list.

test system: PfAP2-EXP AP2 domain (GST-tagged); test: gcPBM binding intensity (ln(normalized median fluorescence intensity)); higher = stronger DNA binding
In short: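 The highest Masliner-normalised natural-log median intensity across replicate spots of either probe orientation is reported as binding intensity. GST-tagged P. falciparum DNA-binding domains expressed in E. coli were applied for 1 h to an Agilent 4 × 180k array of primer-extended double-stranded 36-bp intergenic genomic probes plus negative controls, and bound protein was detected with Alexa488 anti-GST antibody and scanned at 488 nm.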

“GTTTTGTACATATTCTCACACATATAAAAATACCCA [CACACA_site4446]” and “AAGCATTTAATGTTTTATATAACATGTATTTTTTAT [CACACA_negctrl_site673]” are within error of each other in “gcPBM binding intensity (ln)” value: 8.96 ± 0.36 for the first, 8.38 ± 0.45 for the second.

Compared with “TTCATAATAAAAAGGTGTACATATATATATATATAT [XGTACX_site2829]”, “TTTATATGTATACAAACATATAAATATAAATGTATT [TGCATGCA_negctrl_site346]” is lower in “gcPBM binding intensity (ln)” value: 10.34 ± 0.085 for the first, 8.3 ± 0.4 for the second.

“TATATATACATATACACACACACACCGATATATATA [CACACA_site8706]” and “TGTTCTATGATTTGTACACACTTTTTTTTAAAATGC [CACACA_site5558]” are within error of each other in “gcPBM binding intensity (ln)” value: 8.76 ± 0.39 for the first, 8.8 ± 0.35 for the second.

“ATATTACGCACAAAAAAAAAAAAAAAAAAAAAAAAA [CACACA_negctrl_site941]” and “AAAATTAAAATTTTCACACAGATATATTTACAATTT [CACACA_site5692]” are within error of each other in “gcPBM binding intensity (ln)” value: 8.33 ± 0.071 for the first, 8.07 ± 0.4 for the second.

“ATGATGTGCTTTAAAAGTACTTAAGTTATATTCTTT [XGTACX_site7127]” and “AAAAAGAAGAATAATACACACAAATTACTTTATATA [CACACA_site6984]” are within error of each other in “gcPBM binding intensity (ln)” value: 8.59 ± 0.26 for the first, 8.46 ± 0.38 for the second.

“TTCGTAACTGATTCAACACACAAAAGGGGGAAAATT [CACACA_site1754]” and “TAAATTAAAAAAAATACACACACACCGACACATATA [CACACA_site9084]” are within error of each other in “gcPBM binding intensity (ln)” value: 9.25 ± 0.23 for the first, 8.86 ± 0.42 for the second.

“TATGTTATATAATATTGTACACAAAATGGTTTCTAT [XGTACX_site7686]” and “ATATTATAGAAATATACACACATTGTTTTATAGCAT [CACACA_site7177]” are within error of each other in “gcPBM binding intensity (ln)” value: 8.48 ± 0.33 for the first, 8.45 ± 0.39 for the second.

Going from “ATATATATATATATGTGTACATATATTAAGATATAT [XGTACX_site1065]” to “AATTACAAATATTCATGTACATATTTATAAATACAT [XGTACX_site5430]”, the “gcPBM binding intensity (ln)” value falls from 10 ± 0.3 to 8.49 ± 0.3.

“CACAGTGATATAAAAACACACATGAATTCTAATTTC [CACACA_site6884]” and “AGGTATGTCTATAAATGTACATATGAGTTCAATTTC [XGTACX_site2244]” are within error of each other in “gcPBM binding intensity (ln)” value: 8.3 ± 0.21 for the first, 8.61 ± 0.38 for the second.

“AAATATATATAAACAAGTACATATTTAAAAAAAGGA [XGTACX_site2631]” and “CATAAAAATATTAATAAACACACAATCAGATATTGA [CACACA_site9032]” are within error of each other in “gcPBM binding intensity (ln)” value: 8.66 ± 0.46 for the first, 8.59 ± 0.42 for the second.

“ATAACACAAAATTGTTGTACACGTGTTAATAAGTGA [XGTACX_site4452]” and “ATATATATGAAACACACACACAAAAAAAAAAAAAAA [CACACA_site3647]” are within error of each other in “gcPBM binding intensity (ln)” value: 9.12 ± 0.33 for the first, 8.24 ± 0.59 for the second.

“AATATTTATATAAATGCATGCTGATACAACAGTCTT [TGCATGCA_site21]” and “TAAAGTTATGCAATAACACACATATACAATACATAT [CACACA_site6698]” are within error of each other in “gcPBM binding intensity (ln)” value: 9.1 ± 0.38 for the first, 8.78 ± 0.47 for the second.

“TATATAACCGAGTGCACACACAAAAAAAAAGTGAAC [CACACA_site6806]” and “AGGAAACAAGAAATGAAGAATCATGTAGAAGGCCCA [GTGCAC_negctrl_site187]” are within error of each other in “gcPBM binding intensity (ln)” value: 9.2 ± 0.47 for the first, 8.65 ± 0.5 for the second.

First: TATTAAATATTGTATACATGCAAATACTAGAAAATT [TGCATGCA_site370]
Second: AATAATATAAATATTACACACTAATTGTATTATAGA [CACACA_site6347]
The “gcPBM binding intensity (ln)” value of the first is higher: 9.07 ± 0.35 for the first, 8.11 ± 0.4 for the second.

“TTTGCGTAGAAATGTGTGCACTGATATTTATAATAA [GTGCAC_site9526]” and “ATTTTCCTTTTACCACGTACACATAAAAACGTTATA [XGTACX_site3595]” are within error of each other in “gcPBM binding intensity (ln)” value: 8.905 ± 0.078 for the first, 8.88 ± 0.47 for the second.

“TGAACTCATAGGAAAACACACATATGGGTAATATAT [CACACA_site187]” and “AAAAAAAATCAAATGGGTACTTATTCTTAATAATAT [XGTACX_site3792]” are within error of each other in “gcPBM binding intensity (ln)” value: 8.82 ± 0.44 for the first, 8.35 ± 0.54 for the second.

“ATATATACATACAAATTAATTACGAGGAATATATTA [XGTACX_negctrl_site417]” and “ACATATTCATATGGAAGTACGATAATGTAGTCATAT [XGTACX_site7080]” are the same in “gcPBM binding intensity (ln)” value: 8.64 ± 0.36 for the first, 8.64 ± 0.37 for the second.

First: ATAAATATATTTAAATGTACATAATATATATATATA [XGTACX_site5137]
Second: TATATATATTTAAAGGTGCAGATGCCAGTGTATATT
The “gcPBM binding intensity (ln)” value of the first is higher: 9.96 ± 0.18 for the first, 8.89 ± 0.24 for the second.

Compared with “AATGAACTCACGAGCACACACACACCGATATATATA [CACACA_site4710]”, “TATACATATATATACACACACACATATATATATATA [CACACA_site1299]” is higher in “gcPBM binding intensity (ln)” value: 8.82 ± 0.42 for the first, 10 ± 0.27 for the second.

“GTAAAAAAATTAAAAATTAACAAGGAATTAAGTATA [CACACA_negctrl_site1688]” and “GGAACTTATTTTTATACACACATATGTGCATATTAT [CACACA_site629]” are within error of each other in “gcPBM binding intensity (ln)” value: 8.38 ± 0.35 for the first, 8.81 ± 0.35 for the second.

“ATCATAAATATAGCAACACACGGATTACATAAAATA [CACACA_site2796]” and “TTGTAATAAATAAAAGTGCAGATATGGTTCCACTAA [GTGCAC_site9942]” are within error of each other in “gcPBM binding intensity (ln)” value: 8.9 ± 0.5 for the first, 8.39 ± 0.11 for the second.

Going from “TTAAAAAAATAATTAACACACACATGTATATCTATA [CACACA_site9026]” to “TATATATATACCAACACACATACATATATATATATA [CACACA_site1795]”, the “gcPBM binding intensity (ln)” value rises from 8.21 ± 0.42 to 10 ± 0.27.

“TGAATAAATATATATACACACATATCTGTATTTATT [CACACA_site4991]” and “AAATTTGGCAGACACACACACACACGCACACGCACA [CACACA_site6423]” are within error of each other in “gcPBM binding intensity (ln)” value: 8.32 ± 0.27 for the first, 8.66 ± 0.5 for the second.

Going from “CCCTCCCCATGTTTAGTGCAAAAATATTTGAAATTG [GTGCAC_site9873]” to “TATGAAATTAGAATTACACACAGGAAAATAAAATGC [CACACA_site6822]”, the “gcPBM binding intensity (ln)” value falls from 9.98 ± 0.18 to 8.97 ± 0.37.

“AAAATATATATTTGTTGTACAATATTAATTATTAAA [XGTACX_site1612]” and “CCCAAAAAAAATTTATGTACTTATTAAATATATATA [XGTACX_site6455]” are within error of each other in “gcPBM binding intensity (ln)” value: 8.66 ± 0.4 for the first, 9.01 ± 0.79 for the second.

First: TTTATATAAATTTAAGTGCAAAATGAACAAGTGAAA
Second: TTCAATGCTAATTTATGTACATATGTATATAAAATA [XGTACX_site8335]
The “gcPBM binding intensity (ln)” value of the first is higher: 9.13 ± 0.21 for the first, 8.2 ± 0.4 for the second.

Going from “TGCAAAGGTGAAAGAACACACAAAAAAAAAAAAAAA [CACACA_site4024]” to “TTCAAAGGGAAATTAACACACACATATATATATATA [CACACA_site8777]”, the “gcPBM binding intensity (ln)” value rises from 8.27 ± 0.56 to 10.1 ± 0.31.

“AATTTTAGATTTAGCACACATTTTTTTTTTTTTTTT [CACACA_site6105]” and “TTTTTAATCTCATATGTATAATATATTTTTATTAAA [XGTACX_negctrl_site236]” are within error of each other in “gcPBM binding intensity (ln)” value: 8.53 ± 0.14 for the first, 8.42 ± 0.58 for the second.

With “AAAAAAAAAAAAAGAACATGCGACTTTAAGAACTGG [TGCATGCA_site792]” the “gcPBM binding intensity (ln)” value was 8.73 ± 0.49.
